Data as given in PubChem BioAssay AID2060494 (Molecular Pharmacology Branch, DTP, NCI, 2025).
Not every entry of the source has a single result; some have several. This list holds those alone. The source may hold further records. Values that stand side by side are repeats (runs, samples, wells, individuals or studies). Marks such as [2022-09] give the month of the run.

Tested on: 435261-313-R-J1-PDC complex spheroid viability
Test: Anticancer human tumor 435261-313-R-J1-PDC patient-derived colon adenocarcinoma cell line growth inhibition [GQUAD]
Settings: for viability, T/C: stronger effect = lower value; for IC50: compound alone
Source text: DNA G-quadruplex Stabilizer Agents in Combinations in Complex Spheroids
A high-throughput screen of multi-cell type tumor spheroids was designed to identify active combinations of DNA G-quadruplex stabilizer agents and targeted small molecules. Complex spheroids include a stromal component modeled by human endothelial cells (HUVEC) and fibroblasts modeled by human mesenchymal stem cells (MSCs). The concentration ranges selected for each drug and investigational agent were based upon clinically achievable concentrations if the clinical Cmax of the agent was known.
Compounds. The drugs and investigational agents: pidnarulex (CX-5461; NSC782164), APTO-253 (NSC789042), BRACO-19 (NSC847499), peposertib (NSC802822), ceralasertib (NSC780249), elimusertib (NSC800525), camonsertib (NSC841442), AZD-1390 (NSC803789), olaparib (NSC753686), talazoparib (NSC767125), ART-558 (NSC835418), sotorasib (NSC818433), MRTX-1133 (NSC836407), SN-38 (NSC673596), topotecan (NSC609699), etoposide (NSC141540), doxorubicin (NSC123127), gemcitabine (NSC613327), 5-fluorouracil (NSC19893), paclitaxel (NSC125973), vemurafenib (NSC761431), panobinostat (NSC761190), R-306465 (JNJ-16241199; NSC773264), adavosertib (NSC754352), TP-3654 (NSC805149), carboplatin (NSC241240), KSQ-4279 (NSC840948), and staurosporine (NSC755774) were obtained from the National Cancer Institute (NCI) Developmental Therapeutics Program Chemical Repository (34). The FDA-approved anticancer drug set is available from the NCI Developmental Therapeutics Program. […] The stock solutions were prepared in dimethyl sulfoxide (DMSO, Sigma-Aldrich, St. Louis, MO, cat. D2650) at 800-fold the tested concentration and stored at -70 degrees C prior to their use. All drugs and investigational agents were tested over a range starting from a high concentration at or near the clinical Cmax and decreasing in half-log increments. If the clinical Cmax for an agent had not been determined, the highest concentration tested was 10 microM.
2.3 Cell Culture. All cells were maintained in an incubator at 37 degrees C and 5% CO2 with 95% humidity. The PDC lines were cultured according to standard operating procedures established by the NCI PDMR. All PDCs were thawed and cultured in Matrigel-coated flasks prepared with a working solution of 1X Ham's F-12 nutrient mix, without supplementation (Invitrogen, cat. 11765054), 100 U/mL penicillin-streptomycin (Invitrogen, cat. 15140122), and 2.5% Matrigel (Corning Inc., cat. 354248) for the first three passages. The 857933-349-R-J2-PDC line was cultured in 6C/Colon 1B media, which includes advanced DMEM/F-12 (Thermo Fisher Scientific, cat. 12634028), 10 mM HEPES (Thermo Fisher Scientific, cat. 15630080), 1X GlutaMAX supplement (Thermo Fisher Scientific, cat. 35050061), 0.1 mg/mL primocin (InvivoGen, cat. ant-pm-2), 10% defined fetal bovine serum, heat inactivated (HyClone Laboratories Inc., cat. SH30070.03HI), 50% L-WRN conditioned media (ATCC, cat. CRL-3276), 1.25 mM N-Acetyl-L-cysteine (Sigma-Aldrich, cat. A9165), 10 mM nicotinamide (Sigma-Aldrich, cat. N0636), 1X B-27 supplement (Thermo Fisher Scientific, cat. 17504044), 1X N-2 supplement (Thermo Fisher Scientific, cat. 17502048), 10 microM Y-27632 dihydrochloride (Tocris Bioscience, cat. 1254), and 50 ng/mL human EGF recombinant protein (Thermo Fisher Scientific, cat. PHG0311). The 485176-168-R4-J1-PDC line was cultured in Panc media, which includes all 6C/Colon 1B media components plus 100 ng/mL human FGF-10 (Thermo Fisher Scientific, cat. 100-26), 500 nM SB-431542 (Selleckchem, cat. S1067), and gastrin (Tocris, cat. 3006).
[…]
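Further: spheroids exposed to the agents for seven days before readout.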
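Wherever viability, T/C is given: percent of vehicle control viability with DMSO wells as 100%.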

For CN(C)c1ccc(Nc2c3ccc(NC(=O)CCN4CCCC4)cc3nc3cc(NC(=O)CCN4CCCC4)ccc23)cc1, the viability, T/C (compound alone 0.0316 µM) was 113, 89.4, 94.5, 81.2, 93.8, 87, 98.7, 104, 88.1, 86, 78.7%, the viability, T/C (compound alone 0.1 µM) was 88, 76, 104, 107, 73.7, 99.5, 92.7, 105, 94, 103, 101% and the viability, T/C (compound alone 0.316 µM) was 105, 82.5, 96.7, 121, 91.3, 92.4, 95.9, 86.5, 78.3, 73.3, 83.1%. The viability, T/C (compound alone 1 µM) was 98.1, 90.2, 84.9, 95.6, 73.2, 85.4, 84.7, 74.2, 109, 94.5, 71% and the IC50 (run of 02/26/2024) was 6.04 µM, 6.43 µM, 7.43 µM, 6.84 µM, 6 µM, 5.51 µM, 4.83 µM, 3.58 µM, 8.69 µM, 7.12 µM, > 10 µM.
In the case of Cc1[nH]c2ccc(F)cc2c1-c1nc2c3cccnc3c3ncccc3c2[nH]1, the viability, T/C (compound alone 0.1 µM) is reported as 104, 86, 90.9, 92.1, 138, 98.2, 102, 77.7%, the viability, T/C (compound alone 0.316 µM) is reported as 102, 84.8, 63.5, 86.7, 78, 93.1, 75.2, 65.8% and the viability, T/C (compound alone 1 µM) is reported as 78.2, 69.7, 77.3, 78.5, 67.2, 50.6, 52.5, 78.1%.
CC(=O)O[C@H]1C(=O)[C@@]2(C)[C@H]([C@H](OC(=O)c3ccccc3)[C@]3(O)C[C@H](OC(=O)[C@H](O)[C@@H](NC(=O)c4ccccc4)c4ccccc4)C(C)=C1C3(C)C)[C@]1(OC(C)=O)CO[C@@H]1C[C@@H]2O was tested, and the IC50 was 216 nM and > 10 µM.
For CCc1c2c(nc3ccc(O)cc13)-c1cc3c(c(=O)n1C2)COC(=O)[C@]3(O)CC, the IC50 was 23 nM, 19.4 nM, > 316 nM.
Cc1cnc(CNC(=O)c2c(=O)c3ccc(N4CCCN(C)CC4)nc3n3c2sc2ccccc23)cn1 was tested, and the IC50 (run of 02/20/2024) was 753 nM, 1.06 µM, 527 nM and 513 nM, 1.25 µM, 327 nM, 783 nM, 434 nM, 351 nM, 637 nM [2024-02].
